Assay results taken from PubChem BioAssay AID1645887 (National Center for Advancing Translational Sciences (NCATS), 2021).
Values joined by “and” are separate entries in the source; they are usually repeats but may differ in a detail not shown here. Equal values may be shown once. The campaign covered roughly 16,000 compounds. About 40 (0.2%) were called active. About 1% were inconclusive and are not listed. Calls come from the whole dose curve; as a rule, active = well fitted activation curve with a large enough effect; inconclusive = small, poorly fitted or top-dose-only effect, or another doubt; inactive = no such curve, though single readings can be large or run the other way. The list shows a part of the results.

target: Rap guanine nucleotide exchange factor 4 (Homo sapiens) (UniProt Q8WZA2); experiment: Validation qHTS for agonist of cAMP-regulated guanine nucleotide exchange factor 4 (EPAC2); settings: EPAC2 Rap1B BODIPY-GDP exchange, fluorescence; activation: stronger effect = higher value;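 note: exchange makes BODIPY-GDP fluorescence drop when released from Rap1B; series mostly up to about 150 µM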
Chain of UniProt Q8WZA2 (Q8WZA2 whole entry, looked up): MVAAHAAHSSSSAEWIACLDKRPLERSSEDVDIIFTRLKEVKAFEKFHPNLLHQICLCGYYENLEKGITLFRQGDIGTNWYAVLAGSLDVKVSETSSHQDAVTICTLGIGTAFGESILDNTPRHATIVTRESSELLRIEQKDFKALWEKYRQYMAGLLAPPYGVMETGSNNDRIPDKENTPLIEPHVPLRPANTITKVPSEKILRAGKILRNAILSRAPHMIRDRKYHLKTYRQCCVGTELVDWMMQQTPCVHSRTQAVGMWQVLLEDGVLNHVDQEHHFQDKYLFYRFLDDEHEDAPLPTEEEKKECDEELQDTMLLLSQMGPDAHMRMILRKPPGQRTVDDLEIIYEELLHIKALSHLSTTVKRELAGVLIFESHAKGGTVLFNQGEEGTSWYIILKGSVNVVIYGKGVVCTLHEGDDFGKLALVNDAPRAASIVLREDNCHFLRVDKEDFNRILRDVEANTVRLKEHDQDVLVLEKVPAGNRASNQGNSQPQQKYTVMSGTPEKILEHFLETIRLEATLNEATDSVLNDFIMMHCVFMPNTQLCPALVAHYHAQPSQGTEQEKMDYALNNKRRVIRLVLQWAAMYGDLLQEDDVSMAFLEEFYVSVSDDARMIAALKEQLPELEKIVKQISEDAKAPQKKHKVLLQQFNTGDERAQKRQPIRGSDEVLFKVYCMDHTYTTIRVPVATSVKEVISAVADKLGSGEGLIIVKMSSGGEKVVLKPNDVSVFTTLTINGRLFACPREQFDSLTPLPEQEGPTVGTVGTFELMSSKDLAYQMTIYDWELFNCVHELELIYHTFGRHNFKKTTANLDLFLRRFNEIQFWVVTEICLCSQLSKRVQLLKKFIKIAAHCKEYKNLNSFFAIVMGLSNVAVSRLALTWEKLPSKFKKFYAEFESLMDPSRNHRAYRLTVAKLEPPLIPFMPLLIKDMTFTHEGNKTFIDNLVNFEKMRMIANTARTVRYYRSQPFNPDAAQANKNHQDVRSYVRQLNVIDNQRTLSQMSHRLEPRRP
Summary of the method: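 Signal normalized against 6.5 mM cAMP as agonist control. Mix of EPAC2 (100 nM), RAP1B-BODIPY-GDP (250 nM) and GDP (50 uM) was read kinetically at 480/540 nm, every 5 min over 30 min, after 5 min room-temperature incubation with compound.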
% is set by controls: 0 for no effect and ±100 for the full control effect.

activation, inactive:
CC(C)C[C@@H](CO)N1CCN(CCc2ccccc2)CCC1=O -11.9%
COc1cccc(-c2nccc(NCc3cccnc3)n2)c1 -10.4%
NC1=NCCN1CC(=O)O -30.9%
C[C@@H]([C@H](O)c1ccc(O)cc1)N1CCC(Cc2ccccc2)CC1 -6.84%
Cc1c(C(=O)N2CCCCCC2)sc2ncnc(NCC3CCCO3)c12 (centres undefined) -6.31%
COCC(=O)N1CCC2(CC1)CN(c1ccncc1)C2 -11.2%
OC1(c2ccc(Cl)c(C(F)(F)F)c2)CCN(CCCC(c2ccc(F)cc2)c2ccc(F)cc2)CC1 -25.1%
C[C@@H]1C[C@H]2[C@@H]3CCC4=CC(=O)C=C[C@]4(C)[C@@]3(F)[C@@H](O)C[C@]2(C)[C@@]1(O)C(=O)CO -5.34%
c1ccc(CN2CCC3(CCc4ccccc43)CC2)cc1 -15.1% and 5.62%
CC(CC(c1ccccc1)c1ccccc1)NC(C)(C)C (centres undefined) -5.59%
CS(=O)(=O)c1ccc(Cn2c3c(c4cc(F)cc(F)c42)CCC[C@H]3CC(=O)O)cc1 -41.2%
CCCCC(C)(C)[C@H](O)/C=C/[C@H]1[C@H](O)CC(=O)[C@@H]1C/C=C\CCCC(=O)O -3.39%
Clc1nccc2c1ccc1ccccc12 -33.9%
O=C(O)COC(=O)Cc1ccccc1Nc1c(Cl)cccc1Cl 7.38%
CC1(O)CC2C(CC1O)C2(C)C (centres undefined) -25.3%
CN(C)c1ncnc2ccc(-c3ccccc3C#N)cc12 -12.6%
C=C1C[C@@]23C[C@@]1(O)CCC2[C@@]12C=CC(O)[C@](C)(C(=O)O1)C2C3C(=O)O (some centres undefined) 0.87%
CN1CCN(c2ncc3ncc(=O)n(-c4ccccc4)c3n2)CC1 -14.2%
COc1ccc(CN2CC[C@H]3C=CC[C@@H](C(=O)NCc4cccnc4)[C@H]3C2=O)cc1OC -8.28%
COc1ccc(CNc2cc(-c3cccc(C#N)c3)ncn2)c(OC)c1 -0.0778%
Cc1ccc(-c2ccnc(-n3ncc(C(=O)N4CCCCC4c4cccnc4)c3C3CC3)n2)o1 (centres undefined) -14%
C=C1/C(=C\C=C2/CCC[C@]3(C)C([C@H](C)CCCC(C)(C)O)CC[C@@H]23)C[C@@H](O)C[C@@H]1O (some centres undefined) -11.3%
CCC1CN(CCNC(=O)c2cccnc2OC)Cc2cc(OC)ccc2O1 (centres undefined) 4.04%
O=C(Nc1ccccc1)N1CCCC2(CCN(C(=O)c3cc(C(F)(F)F)cc(C(F)(F)F)c3)CC2)C1 -8.55%
CN(C)c1ccc(/C=C2/C(=O)Nc3ccccc32)cc1 -1.78%
COc1cc(=O)n2c(c1C(=O)NC(C)c1ccco1)CCN(C(=O)c1ccccc1SC)CC2 (centres undefined) -1.68%
Clc1ccccc1-c1cc(NCCN2CCOCC2)ncn1 -10.3%
O=C(C[N+]12CN3CN(CN(C3)C1)C2)c1ccc(I)cc1 -16%
COC(=O)C1=COC(O[C@H]2OC(CO)[C@H](O)C(O)C2O)[C@H]2C1C(=O)C[C@@H]2C (some centres undefined) -16.7%
N=C(N)S/C=C\C(=O)O 4.59% and -6.71%
Cc1nnc(NS(=O)(=O)c2ccc(N)cc2)s1 -17% and 9.87%
COc1ccc2c(c1)CCc1cnc(-n3ncc(C(=O)NC4CCOC4)c3C3CC3)nc1-2 (centres undefined) -30.7%
COc1ccccc1-c1ccnc(-n2ncc(C(=O)N(C)C(C)c3nc(C)cs3)c2C2CC2)n1 (centres undefined) 0.901%
COc1ccccc1-c1cncnc1N(C)Cc1ccco1 7.97%
C#CCCCCCCCCCCCc1ccco1 -27.6%
CCN1CCN(c2cc3c(cc2F)c(=O)c(C(=O)O)cn3C2CC2)CC1 -15.4%
CC(NC(=O)c1cc(F)ccc1F)c1nnc2n1CCN(Cc1ccco1)CC2 (centres undefined) -4.98%
O=C1C2CC3CC1CC(O)(C3)C2 -5.01%
O=[n+]1ccn([O-])c2ccccc21 -14.1%
CS(=O)(=O)N1CCC2(CCCN(C(c3ccccc3)c3ccccc3)C2)CC1 -3.38%
COc1ccc2ccccc2c1CN1CCOc2ccc(CN3CCN(CCO)CC3)cc2C1 -2.86%
CS(=O)(=O)Nc1cccc(-c2nccc(NCc3cccs3)n2)c1 -9.6%
COc1cc(NS(C)(=O)=O)ccc1Nc1c2ccccc2nc2ccccc12 -1.52% and -18.7%
CN1c2c(nc(N)[nH]c2=O)NCC1CNc1ccc(C(=O)NC(CCC(=O)O)C(=O)O)cc1 (centres undefined) 9.21%
CCN1CCC[C@H]1CNC(=O)c1c(OC)ccc(Br)c1OC 5.37% and -14.8%
O=C(C[N+]12CCCc3cccc(c31)CCC2)c1ccc2ccccc2c1 -9.64%
COc1ccc(-c2nc3cnc(N4CCOCC4)nc3n(C)c2=O)cc1 -3.01%
COc1ccc(-c2[nH]ncc2CN2CCOc3c(cc(-c4cccc(OC)n4)cc3OC)C2)cc1 8.86%
COc1ccc2c(OC)c3ccoc3nc2c1OC -2.4%
CCCc1nc2cccnc2n1C1CCN(C(=O)CC2NC(=O)c3ccccc32)CC1 (centres undefined) 5.36%
CC(C)(C)CC(C)(C)N=C1Nc2cc(Cl)c(Cl)cc2N[C@]12C[C@H]1CCCC(=O)N3CC[C@@H](C2)[C@@H]13 -14.6%
C=CCN(C(C(=O)OC)C(C)C)S(=O)(=O)CCNCc1ccccc1 (centres undefined) -10.1%
O=C(NCCc1c[nH]c2ccccc12)c1cccnc1 0.38%
C1CCN2C[C@@H]3C[C@@H](CN4CCCC[C@@H]34)[C@H]2C1 -16.3% and -13.6%
CN(Cc1ccc2c(c1)CN(C(=O)c1cccc(N(C)C)c1)CCO2)Cc1cc(C2CC2)n[nH]1 -16.7%
O=S(=O)(c1ccccc1)N1CCC2(CCCN(Cc3cc(C(F)(F)F)cc(C(F)(F)F)c3)C2)CC1 -2.81%
O=C(O)C[C@H]1c2ccc(C(F)(F)F)cc2S(=O)(=O)N1C1CCCCC1 -19.6%
C=CCCCCCCCCCCC/C=C/C(O)COC(C)=O (centres undefined) -44%
CCCCCCCCCCCCN1[C@@H](CC(=O)OC)c2cc(C(F)(F)F)ccc2S1(=O)=O -35.8%
CCCCCCCC/C=C/CCCCCCCCOP(=O)([O-])OCC[N+](C)(C)C -32.5%
CC(=O)OCC(OC(C)=O)C(OC(C)=O)C(OC(C)=O)C(OC(C)=O)C(COC(C)=O)OC(C)=O (centres undefined) -21.2%
FC(F)(F)c1ccccc1-c1nccc(NCc2cccs2)n1 -21.3%
CC1CC(OC(=O)C(O)c2ccccc2)CC(C)(C)N1C (centres undefined) -19.3% and 0.128%
OC[C@H]1O[C@@H](n2cnc3c(NCc4ccco4)ncnc32)[C@H](O)[C@@H]1O -5.18% and -17.5%
CC(C)CCOC(=O)c1ccc(N(C)C)cc1 -14.6%
COCC(=O)Nc1cc(C(=O)N2CCc3c([nH]c4ccccc34)C2)cc2nc(-c3ccccc3)n(C)c12 -3.22%
COCC(=O)N1CCC2(CCCN(Cc3ccccc3)C2)CC1 -23.7%
N[C@@]1(C(=O)O)CN[C@H](C(=O)O)C1 -5.91%
CCN1CCN(C(=O)N[C@@H](C(=O)N[C@@H]2C(=O)N3C(C(=O)O)=C(CSc4nnnn4C)CS[C@H]23)c2ccc(O)cc2)C(=O)C1=O 8.68%
CN(C)CCOc1ccc(/C(=C(/CCCl)c2ccccc2)c2ccccc2)cc1 -19.2%
COCCn1c(=O)c(-c2cccs2)nc2cnc(N3CCOCC3)nc21 8.58%
COC(=O)C1=C(C)NC(C)=C(C(=O)OCCCN2CCC(c3ccccc3)(c3ccccc3)CC2)[C@H]1c1cccc([N+](=O)[O-])c1 -14.3% and -25.8%
Cc1ccc(Cl)c(Nc2ccccc2C(=O)O)c1Cl -14.4% and -5.8% and 7.96%
COc1ccc(OC)c(C(=O)N2CCc3c(cnc(C)c3CNS(=O)(=O)N(C)C)C2)c1 -13.4%
Cn1cccc1C(=O)N1CCC[C@@]2(CCN(C(c3ccccc3)c3ccccc3)C2)C1 4.18%
CC(C)C[C@@H](CO)N1CCN(Cc2ccccc2)CCC1=O -28.5% and -16%
O=C(NCCO[N+](=O)[O-])c1cccnc1 -14.8%
COc1cc(-c2noc(C)c2/C=C/c2ccc(N)cc2)cc(OC)c1OC -21.9%
CN1CCCN(C(=O)[C@@H]2C[C@@H](Sc3nc4ccccc4[nH]3)CN2Cc2ccc(OC(F)(F)F)cc2)CC1 -24.9%
COc1ccc(C(=O)N2CCC[C@@]3(CCN(C)C3)C2)cc1 -8.25%
C#C[C@@]1(O)CCC2C3CCc4cc(O)ccc4C3CC[C@@]21C (some centres undefined) -13.8%
Cc1c(C(=O)N2CCCC(C)C2)sc2ncnc(NCCN3CCCCC3)c12 (centres undefined) -10.9%
N[C@]1(C(=O)O)CCc2cc(C(=O)O)ccc21 -10.5%
CO[C@@]12[C@H](COC(N)=O)C3=C(C(=O)C(C)=C(N)C3=O)N1C[C@@H]1N[C@@H]12 -15.6%
